Assay results as given in PubChem BioAssay AID1347165 (National Center for Advancing Translational Sciences (NCATS), 2019).
Screen size: about 220,000 compounds; about 5,700 (2.6%) were called active. The shares of active, inactive and inconclusive entries below differ from those in the screen. The call rests on the fitted dose curve; in most records, active means well fitted inhibition curve with a large enough effect; inconclusive means small, poorly fitted or top-dose-only effect; inactive means no such curve, though single readings can be large or run the other way. A potency beside an inconclusive call is a rough fit, not a confirmed value.

Each compound was assayed against Lysine-specific demethylase 5B (Homo sapiens) (UniProt Q9UGL1) (assay: Primary screen for KDM5B Histone Demethylases FDH-coupled qHTS). Settings: FDH-coupled NADH fluorescence (FDH is formaldehyde dehydrogenase); series mostly up to 57.7 µM.
Sequence of UniProt Q9UGL1 (Q9UGL1 whole entry, looked up): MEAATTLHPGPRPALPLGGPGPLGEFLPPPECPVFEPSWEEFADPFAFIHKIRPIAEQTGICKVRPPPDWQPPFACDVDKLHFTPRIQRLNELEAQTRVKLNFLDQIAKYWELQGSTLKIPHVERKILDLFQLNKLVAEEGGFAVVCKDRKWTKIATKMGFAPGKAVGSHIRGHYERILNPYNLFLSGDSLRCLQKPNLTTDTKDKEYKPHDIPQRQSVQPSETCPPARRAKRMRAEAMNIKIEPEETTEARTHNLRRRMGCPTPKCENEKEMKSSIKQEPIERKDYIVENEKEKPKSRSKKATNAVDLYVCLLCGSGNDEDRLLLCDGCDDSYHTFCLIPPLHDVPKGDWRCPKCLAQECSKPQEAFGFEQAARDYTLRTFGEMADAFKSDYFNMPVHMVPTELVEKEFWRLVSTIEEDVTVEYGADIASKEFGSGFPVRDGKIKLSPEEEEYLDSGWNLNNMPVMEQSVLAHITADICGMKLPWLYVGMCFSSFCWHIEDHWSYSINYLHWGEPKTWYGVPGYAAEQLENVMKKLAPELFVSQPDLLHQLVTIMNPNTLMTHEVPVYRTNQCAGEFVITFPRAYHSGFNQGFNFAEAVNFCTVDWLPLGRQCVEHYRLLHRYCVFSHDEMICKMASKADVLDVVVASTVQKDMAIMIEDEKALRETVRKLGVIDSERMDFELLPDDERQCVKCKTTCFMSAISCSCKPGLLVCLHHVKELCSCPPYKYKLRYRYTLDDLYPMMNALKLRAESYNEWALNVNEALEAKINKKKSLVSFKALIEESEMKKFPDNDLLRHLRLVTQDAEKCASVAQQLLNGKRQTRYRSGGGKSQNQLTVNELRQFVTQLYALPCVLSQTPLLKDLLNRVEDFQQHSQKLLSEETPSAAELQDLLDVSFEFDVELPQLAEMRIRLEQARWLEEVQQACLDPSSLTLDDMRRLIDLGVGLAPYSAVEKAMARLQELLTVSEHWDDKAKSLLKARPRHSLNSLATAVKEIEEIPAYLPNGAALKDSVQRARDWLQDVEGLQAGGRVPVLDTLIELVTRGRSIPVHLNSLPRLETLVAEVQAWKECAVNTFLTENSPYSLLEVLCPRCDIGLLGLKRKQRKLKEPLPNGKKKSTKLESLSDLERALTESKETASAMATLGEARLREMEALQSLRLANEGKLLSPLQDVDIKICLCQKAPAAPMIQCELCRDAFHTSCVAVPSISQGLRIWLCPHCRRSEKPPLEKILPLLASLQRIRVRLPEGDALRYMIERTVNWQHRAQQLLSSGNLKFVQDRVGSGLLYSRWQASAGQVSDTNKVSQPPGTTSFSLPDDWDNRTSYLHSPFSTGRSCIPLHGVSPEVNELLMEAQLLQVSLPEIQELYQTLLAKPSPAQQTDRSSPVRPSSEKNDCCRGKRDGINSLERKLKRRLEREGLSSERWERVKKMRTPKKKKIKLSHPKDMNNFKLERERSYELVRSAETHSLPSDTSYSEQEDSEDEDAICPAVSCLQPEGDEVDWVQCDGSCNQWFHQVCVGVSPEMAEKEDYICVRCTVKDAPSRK
Outline: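 qHTS format, multiple compound concentrations. Buffer 50 mM HEPES pH 7.5/0.01% Tween-20; 200 nM KDM5BΔAP final; 10 min compound preincubation; substrate-mix levels 12.5 µM peptide, 25 µM α-KG, 0.25 mM NAD⁺; 30 min RT; ΔRFU.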
Further: nearly all actives have a fitted effect of over 70% in size.
Potency means the concentration at half of the fitted maximal effect; tags describe the fitted curve by direction and shape.

Row | SMILES | Potency
1 | Cc1ccc(NC(=O)C2CCN(c3ncnc4c3sc3ncccc34)CC2)cc1F | inactive
2 | CCOc1cc2ccccc2cc1C(=O)N1CCN(CC(=O)Nc2ccccc2Cl)CC1 | inactive
3 | CCc1nnc(CN(CC)C(=O)c2ccc3nc(-c4ccccc4)cn3c2)o1 | active: 28.2 µM
4 | Cc1cc(C)n(C2CCN(C(=O)CCc3cc4n(n3)CCNC4)C2)n1 (centres undefined) | inconclusive: 12.6 µM [inhibitor, partial curve]
5 | O=[S+]([O-])(c1cccc(C(F)(F)F)c1)N1CCCC2(CC(c3ccccc3)=NO2)C1 (centres undefined) | inconclusive: 5.62 µM [inhibitor, full curve]
6 | CC(C)Cn1cc(NC(=O)Nc2cccc(C(F)(F)F)c2)c2ccccc2c1=O | inconclusive: 25.1 µM [inhibitor, partial curve, poor fit]
7 | CCCC(=O)Nc1ccc(OCC)c2ncccc12 | inconclusive: 39.8 µM [inhibitor, single point]
8 | CCc1cccc(NC(=O)c2n[nH]c(=O)c3ccccc23)c1 | inactive
9 | CC(=O)Nc1ccc(CNC(=O)c2cc(=O)[nH]c3ccccc23)cc1 | inconclusive: 35.5 µM [inhibitor, single point]
10 | CCOc1ccc(CNC(=O)c2cccc(NC(=O)N3CCSc4ncccc43)c2)cc1 | inconclusive: 35.5 µM [inhibitor, partial curve, poor fit]
11 | COC(=O)c1ccc(OCC(O)CNCC(c2ccc(OC)cc2)N(C)C)c(OC)c1 (centres undefined) | inconclusive: 10 µM [inhibitor, full curve, poor fit]
12 | CCCc1ccc(-c2csc(NC(=O)Cn3ncc4ccccc4c3=O)n2)cc1 | inactive
13 | Cc1cccc(C(=O)NC2CCN(c3cc(-c4cccs4)[nH]n3)CC2)c1 | inconclusive: 17.8 µM [inhibitor, single point]
14 | Cc1[nH]c2ccccc2c1C(c1ccccc1F)c1c(C)[nH]c2ccccc12 | inconclusive: 22.4 µM [inhibitor, partial curve, poor fit]
15 | COc1ccc(-c2csc(NC(=O)Cc3nc4nc(C)cc(C)n4n3)n2)cc1Cl | inactive
16 | COc1cccc(N2CCN(S(=O)(=O)c3cn(C)c(C)n3)CC2)c1 | inconclusive: 35.5 µM [inhibitor, single point]
17 | O=C(N[C@H]1CO[C@H]2[C@@H]1OC[C@@H]2Nc1nccc(-c2cccs2)n1)C1CCCCC1 | active: 35.5 µM
18 | COc1ccc(CNC(=O)CCc2cn(C)c3ccccc23)cc1 | inconclusive: 28.2 µM [inhibitor, partial curve, poor fit]
19 | Cc1ccc(C(N)=O)c(OCc2coc(-c3ccc(F)cc3)n2)c1 | inactive
